Experimental data reported in PMC2821452 (Synapse (New York, N.Y.), 2010).
Counter-ions that a name gives are not always drawn.

Tests used:
cloned human KOR = cloned human KOR (Homo sapiens, UniProt P41145); settings: read-out: KI KOR; [125I]IOXY; mean±SD, n=3
cloned human DOR = cloned human DOR (Homo sapiens, UniProt P41143); settings: read-out: KI DOR; [125I]IOXY; mean±SD, n=3
cloned human MOR = cloned human MOR (Homo sapiens, UniProt P35372); settings: read-out: KI MOR; [125I]IOXY; mean±SD, n=3
Chain of UniProt P35372 (P35372 whole entry): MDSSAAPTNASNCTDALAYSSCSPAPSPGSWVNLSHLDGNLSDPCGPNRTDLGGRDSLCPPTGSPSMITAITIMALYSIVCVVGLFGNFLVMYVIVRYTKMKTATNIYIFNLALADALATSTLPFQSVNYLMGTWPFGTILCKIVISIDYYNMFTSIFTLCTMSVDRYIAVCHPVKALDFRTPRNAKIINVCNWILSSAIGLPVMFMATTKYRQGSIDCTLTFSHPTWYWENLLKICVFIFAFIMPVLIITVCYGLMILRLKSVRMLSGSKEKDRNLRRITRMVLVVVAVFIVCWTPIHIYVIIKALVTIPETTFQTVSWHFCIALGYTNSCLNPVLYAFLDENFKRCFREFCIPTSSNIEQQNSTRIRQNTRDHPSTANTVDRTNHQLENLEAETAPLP

Chain of UniProt P41143 (P41143 whole entry): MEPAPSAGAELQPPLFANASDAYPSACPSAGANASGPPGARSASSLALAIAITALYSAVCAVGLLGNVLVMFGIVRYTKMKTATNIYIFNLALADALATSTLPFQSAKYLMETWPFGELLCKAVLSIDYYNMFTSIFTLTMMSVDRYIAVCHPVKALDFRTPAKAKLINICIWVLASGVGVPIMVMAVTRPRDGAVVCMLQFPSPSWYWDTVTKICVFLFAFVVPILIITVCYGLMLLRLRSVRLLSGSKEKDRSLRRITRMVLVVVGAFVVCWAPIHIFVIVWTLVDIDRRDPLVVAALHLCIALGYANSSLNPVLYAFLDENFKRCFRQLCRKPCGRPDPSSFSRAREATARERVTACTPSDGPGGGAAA
Chain of UniProt P41145 (P41145 whole entry): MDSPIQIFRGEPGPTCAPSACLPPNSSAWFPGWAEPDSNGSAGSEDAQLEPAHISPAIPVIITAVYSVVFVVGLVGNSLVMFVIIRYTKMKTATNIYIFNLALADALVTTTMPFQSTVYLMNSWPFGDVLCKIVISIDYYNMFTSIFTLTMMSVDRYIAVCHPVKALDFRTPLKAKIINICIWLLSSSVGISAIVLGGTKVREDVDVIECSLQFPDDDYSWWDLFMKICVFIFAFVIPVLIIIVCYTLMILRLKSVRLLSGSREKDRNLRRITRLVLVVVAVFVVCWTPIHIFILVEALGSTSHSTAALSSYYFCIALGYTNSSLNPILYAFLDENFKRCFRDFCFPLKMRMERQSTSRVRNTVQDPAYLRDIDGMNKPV

Oc1cccc([C@]23CCC[C@H](C2)N(C/C=C\c2ccccc2)CC3)c1 [KC-2-009, (+)-3-((1R,5S)-2-((Z)-3-Phenylallyl)-2-azabicyclo[3.3.1]nonan-5-yl)phenol hydrochloride]
Ki (cloned human KOR): 0.123 ± 0.004 µM
Ki (cloned human DOR): 0.454 ± 0.025 µM
Ki (cloned human MOR): 0.026 ± 0.002 µM
